Reference: ChEMBL document CHEMBL1961873, “Compounds: GSK PKIS; Assays: Nanosyn kinase panel” (2012)
For some assays here: This list holds what a sample rich in strong results left over. This is a selection; strong and weak results do not stand in their true shares.

What was measured:
[1] = biological target: T1, Serine/threonine-protein kinase TBK1 (Homo sapiens) (UniProt Q9UHD2); conditions: at 1 µM;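 further: values are mean inhibition of TBK1, screened as part of the GSK published kinase inhibitor set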
T1 sequence (whole entry): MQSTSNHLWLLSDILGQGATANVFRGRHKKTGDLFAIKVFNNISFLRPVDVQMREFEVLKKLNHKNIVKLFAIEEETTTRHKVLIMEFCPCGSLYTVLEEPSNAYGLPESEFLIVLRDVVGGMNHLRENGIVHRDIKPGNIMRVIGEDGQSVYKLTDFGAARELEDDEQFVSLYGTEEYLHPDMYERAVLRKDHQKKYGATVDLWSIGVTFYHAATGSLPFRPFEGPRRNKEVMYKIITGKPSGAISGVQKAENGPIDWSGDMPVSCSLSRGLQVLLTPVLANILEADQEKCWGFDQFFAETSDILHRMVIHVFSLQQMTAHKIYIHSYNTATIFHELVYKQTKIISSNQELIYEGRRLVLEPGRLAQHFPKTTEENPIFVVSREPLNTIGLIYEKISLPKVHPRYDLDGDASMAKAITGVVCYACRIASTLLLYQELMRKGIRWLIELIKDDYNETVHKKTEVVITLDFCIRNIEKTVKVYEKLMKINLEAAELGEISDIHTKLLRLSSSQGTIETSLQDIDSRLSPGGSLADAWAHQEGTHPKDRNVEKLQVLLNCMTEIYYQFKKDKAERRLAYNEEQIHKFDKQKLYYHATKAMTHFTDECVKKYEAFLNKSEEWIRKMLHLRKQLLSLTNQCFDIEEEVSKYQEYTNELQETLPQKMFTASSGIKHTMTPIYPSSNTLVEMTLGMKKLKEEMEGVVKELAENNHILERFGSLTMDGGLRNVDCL

[2] = biological target: T2, Testis-specific serine/threonine-protein kinase 1 (Homo sapiens) (UniProt Q9BXA7); conditions: at 0.1 µM
T2 sequence (whole entry): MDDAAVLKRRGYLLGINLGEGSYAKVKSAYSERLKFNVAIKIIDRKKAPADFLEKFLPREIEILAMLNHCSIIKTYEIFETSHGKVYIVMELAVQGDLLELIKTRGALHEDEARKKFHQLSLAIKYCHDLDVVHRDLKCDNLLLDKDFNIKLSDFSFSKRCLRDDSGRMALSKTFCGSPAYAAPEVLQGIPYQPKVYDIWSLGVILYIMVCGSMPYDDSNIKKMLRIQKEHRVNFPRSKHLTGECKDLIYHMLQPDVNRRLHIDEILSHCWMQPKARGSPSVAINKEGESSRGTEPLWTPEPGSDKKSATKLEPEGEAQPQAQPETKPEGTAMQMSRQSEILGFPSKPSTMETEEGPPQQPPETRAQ

[3] = biological target: T2, Testis-specific serine/threonine-protein kinase 1 (Homo sapiens); conditions: at 1 µM
[4] = biological target: T3, Testis-specific serine/threonine-protein kinase 2 (Homo sapiens) (UniProt Q96PF2); conditions: at 0.1 µM
T3 sequence (whole entry): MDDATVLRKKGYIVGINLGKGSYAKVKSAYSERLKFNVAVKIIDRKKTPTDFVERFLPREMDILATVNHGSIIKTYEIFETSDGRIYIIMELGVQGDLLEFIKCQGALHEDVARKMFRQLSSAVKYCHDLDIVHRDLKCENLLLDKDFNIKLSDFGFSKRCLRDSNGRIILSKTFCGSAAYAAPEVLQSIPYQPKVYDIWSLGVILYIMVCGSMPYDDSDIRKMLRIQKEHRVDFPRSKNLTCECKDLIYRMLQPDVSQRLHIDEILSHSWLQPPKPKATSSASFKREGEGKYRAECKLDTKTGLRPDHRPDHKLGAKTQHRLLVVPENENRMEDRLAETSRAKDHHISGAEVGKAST

[5] = biological target: T3, Testis-specific serine/threonine-protein kinase 2 (Homo sapiens); conditions: at 1 µM
[6] = biological target: Casein kinase I isoform alpha (Homo sapiens) (UniProt P48729); conditions: at 0.1 µM
[7] = biological target: Casein kinase I isoform alpha (Homo sapiens) (UniProt P48729); conditions: at 1 µM
[8] = biological target: Casein kinase I isoform gamma-1 (Homo sapiens) (UniProt Q9HCP0); conditions: at 0.1 µM
[9] = biological target: Casein kinase I isoform gamma-1 (Homo sapiens) (UniProt Q9HCP0); conditions: at 1 µM
[10] = biological target: Casein kinase I isoform gamma-2 (Homo sapiens) (UniProt P78368); conditions: at 0.1 µM
[11] = biological target: Casein kinase I isoform gamma-2 (Homo sapiens) (UniProt P78368); conditions: at 1 µM
[12] = biological target: Casein kinase I isoform gamma-3 (Homo sapiens) (UniProt Q9Y6M4); conditions: at 0.1 µM
[13] = biological target: Casein kinase I isoform gamma-3 (Homo sapiens) (UniProt Q9Y6M4); conditions: at 1 µM
[14] = biological target: Cyclin-dependent kinase 1 (Homo sapiens) (UniProt P06493); conditions: at 0.1 µM
[15] = biological target: Cyclin-dependent kinase 1 (Homo sapiens) (UniProt P06493); conditions: at 1 µM
[16] = biological target: Cyclin-dependent kinase 2 (Homo sapiens) (UniProt P24941); conditions: at 0.1 µM
[17] = biological target: Cyclin-dependent kinase 2 (Homo sapiens) (UniProt P24941); conditions: at 1 µM
[18] = biological target: Cyclin-dependent kinase 2 (Homo sapiens) (UniProt P24941); conditions: at 0.1 µM; remark: listed apart in the source
[19] = biological target: Cyclin-dependent kinase 2 (Homo sapiens) (UniProt P24941); conditions: at 1 µM; remark: listed apart in the source
[20] = biological target: CDK3/Cyclin E (Homo sapiens) (UniProt P24864+Q00526); conditions: at 0.1 µM;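 further: reported percentages are mean inhibition values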
Sequence of UniProt P24864 (P24864 whole entry, looked up): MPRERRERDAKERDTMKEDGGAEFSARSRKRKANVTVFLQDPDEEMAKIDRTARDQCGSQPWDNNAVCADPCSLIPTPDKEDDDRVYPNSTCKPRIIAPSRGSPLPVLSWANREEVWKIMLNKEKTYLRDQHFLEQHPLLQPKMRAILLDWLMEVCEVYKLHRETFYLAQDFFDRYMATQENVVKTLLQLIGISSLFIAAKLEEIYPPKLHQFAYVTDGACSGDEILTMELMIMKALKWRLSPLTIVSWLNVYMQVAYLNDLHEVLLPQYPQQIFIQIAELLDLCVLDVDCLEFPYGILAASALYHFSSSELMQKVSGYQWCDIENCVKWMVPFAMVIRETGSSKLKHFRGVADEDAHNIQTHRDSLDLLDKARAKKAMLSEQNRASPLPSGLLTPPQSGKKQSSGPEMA
Sequence of UniProt P24864 (Q00526 whole entry, looked up): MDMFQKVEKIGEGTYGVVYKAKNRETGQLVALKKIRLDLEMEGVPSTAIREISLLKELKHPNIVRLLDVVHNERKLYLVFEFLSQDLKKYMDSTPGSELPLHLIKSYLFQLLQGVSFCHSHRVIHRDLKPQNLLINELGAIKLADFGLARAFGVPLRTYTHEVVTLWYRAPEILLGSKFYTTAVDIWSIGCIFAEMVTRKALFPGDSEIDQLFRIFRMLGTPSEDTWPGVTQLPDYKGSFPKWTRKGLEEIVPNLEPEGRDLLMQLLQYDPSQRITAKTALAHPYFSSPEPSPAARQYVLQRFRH

Sequence of UniProt Q9HCP0 (Q9HCP0 whole entry, looked up, canonical isoform): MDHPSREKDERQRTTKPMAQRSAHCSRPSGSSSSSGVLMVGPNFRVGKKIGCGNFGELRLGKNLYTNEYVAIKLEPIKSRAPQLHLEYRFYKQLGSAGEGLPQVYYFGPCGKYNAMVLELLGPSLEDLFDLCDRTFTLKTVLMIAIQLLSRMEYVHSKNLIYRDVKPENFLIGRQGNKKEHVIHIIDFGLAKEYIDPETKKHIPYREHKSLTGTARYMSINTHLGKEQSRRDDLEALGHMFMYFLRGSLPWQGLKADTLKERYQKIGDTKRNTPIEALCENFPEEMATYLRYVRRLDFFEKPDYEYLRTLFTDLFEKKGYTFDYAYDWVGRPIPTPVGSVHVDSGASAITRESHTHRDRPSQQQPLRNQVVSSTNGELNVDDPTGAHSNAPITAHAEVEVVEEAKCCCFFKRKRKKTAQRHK
Sequence of UniProt P06493 (P06493 whole entry, looked up): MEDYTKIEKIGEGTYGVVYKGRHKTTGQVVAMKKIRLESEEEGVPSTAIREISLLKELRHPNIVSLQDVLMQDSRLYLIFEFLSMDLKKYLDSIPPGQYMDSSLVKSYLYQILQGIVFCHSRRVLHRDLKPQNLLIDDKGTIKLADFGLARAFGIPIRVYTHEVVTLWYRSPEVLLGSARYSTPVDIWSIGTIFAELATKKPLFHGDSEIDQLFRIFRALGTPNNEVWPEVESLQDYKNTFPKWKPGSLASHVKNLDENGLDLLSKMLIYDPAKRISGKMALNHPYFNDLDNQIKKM
Sequence of UniProt Q9Y6M4 (Q9Y6M4 whole entry, looked up, canonical isoform): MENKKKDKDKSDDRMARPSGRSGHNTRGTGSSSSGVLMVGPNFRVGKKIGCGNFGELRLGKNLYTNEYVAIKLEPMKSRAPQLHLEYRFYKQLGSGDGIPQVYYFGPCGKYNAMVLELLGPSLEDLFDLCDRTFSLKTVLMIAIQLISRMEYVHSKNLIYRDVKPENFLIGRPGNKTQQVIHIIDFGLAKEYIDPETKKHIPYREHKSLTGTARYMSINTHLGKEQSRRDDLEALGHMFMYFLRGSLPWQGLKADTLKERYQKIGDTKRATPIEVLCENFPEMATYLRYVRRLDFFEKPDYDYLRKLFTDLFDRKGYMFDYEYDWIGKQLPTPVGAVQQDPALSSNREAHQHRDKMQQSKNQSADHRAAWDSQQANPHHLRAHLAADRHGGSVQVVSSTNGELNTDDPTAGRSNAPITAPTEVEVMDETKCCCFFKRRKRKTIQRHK
Sequence of UniProt P78368 (P78368 whole entry, looked up, canonical isoform): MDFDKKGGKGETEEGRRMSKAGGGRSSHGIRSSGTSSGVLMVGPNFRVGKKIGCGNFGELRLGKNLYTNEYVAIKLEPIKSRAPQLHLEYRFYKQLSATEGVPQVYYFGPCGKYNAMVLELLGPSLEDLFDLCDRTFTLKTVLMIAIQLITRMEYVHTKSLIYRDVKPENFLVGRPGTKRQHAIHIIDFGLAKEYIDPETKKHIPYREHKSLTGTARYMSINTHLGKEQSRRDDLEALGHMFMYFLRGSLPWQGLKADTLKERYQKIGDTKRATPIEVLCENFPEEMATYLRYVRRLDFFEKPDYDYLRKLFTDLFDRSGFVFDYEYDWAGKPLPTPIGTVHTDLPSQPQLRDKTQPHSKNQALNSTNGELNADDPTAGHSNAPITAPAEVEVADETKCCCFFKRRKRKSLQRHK
Sequence of UniProt P48729 (P48729 whole entry, looked up, canonical isoform): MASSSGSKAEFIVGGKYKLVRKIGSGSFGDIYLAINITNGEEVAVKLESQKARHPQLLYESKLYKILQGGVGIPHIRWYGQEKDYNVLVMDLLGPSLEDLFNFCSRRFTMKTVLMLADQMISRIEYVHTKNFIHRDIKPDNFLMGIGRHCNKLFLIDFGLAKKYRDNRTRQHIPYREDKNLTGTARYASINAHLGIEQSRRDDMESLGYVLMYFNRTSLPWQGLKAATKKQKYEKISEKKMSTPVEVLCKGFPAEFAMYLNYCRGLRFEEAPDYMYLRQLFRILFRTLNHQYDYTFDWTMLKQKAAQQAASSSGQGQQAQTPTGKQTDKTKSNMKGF

SMILES	inhibition [1] [%]	inhibition [2] [%]	inhibition [3] [%]	inhibition [4] [%]	inhibition [5] [%]	inhibition [6] [%]	inhibition [7] [%]	inhibition [8] [%]	inhibition [9] [%]	inhibition [10] [%]	inhibition [11] [%]	inhibition [12] [%]	inhibition [13] [%]	inhibition [14] [%]	inhibition [15] [%]	inhibition [16] [%]	inhibition [17] [%]	inhibition [18] [%]	inhibition [19] [%]	inhibition [20] [%]
Cc1cccc(Oc2nccc(-c3c(-c4ccc(F)cc4)ncn3C3CCNCC3)n2)c1C	2	2.84	4.08	0.86	1.22	4.01	17.9	4.85	10.5	4.11	8.38	3.94	15.4	1.08	3.9	4.39	6.7	4.46	6.04	-0.24
Fc1ccc(-c2ncn(C3CCNCC3)c2-c2ccnc(Oc3ccc(Cl)cc3)n2)cc1	1.95	1.38	0.67	0.78	0.7	1.66	18.4	0.9	3.97	0.06	2.65	-0.22	7.47	1.32	0.7	2.1	1.92	-0.29	1.19	0.11
O=C1NC(=O)C(c2ccccc2Cl)=C1Nc1cc(Cl)c(O)c(Cl)c1	6.6	3.01	5.57	1.49	4.24	2.96	2.34	3.19	4.09	3.49	3.59	3.24	3.77	0.18	3.95	1.75	4.91	3.39	6.65	0.83
CC(C)(C)c1ccc(Oc2nccc(-c3c(-c4ccc(F)cc4)ncn3C3CCNCC3)n2)cc1	4.71	3.19	4.6	1.5	2.01	8.17	36.6	5.84	24.2	4.62	20.3	8.9	37.1	2.5	4.39	2.76	2.67	4.72		-1.72
O=C(O)c1ccc(Oc2nccc(-c3c(-c4ccc(F)cc4)ncn3C3CCNCC3)n2)cc1	4.39	5.41	4.67	1.61	1.97	3.89	15.7	4.29	6.6	4.39	6.06	6.15	7.57	2.95	1.14	3.34	3.24	1.44	2.97	-1.93
Fc1ccc(-c2ncn(C3CCNCC3)c2-c2ccnc(Oc3cccc(C(F)(F)F)c3)n2)cc1	3.82	6.19	5.46	3.19	2.98	5.38	21.1	4.86	12.7	4.6	8.41		18.4	1.02	1.41	3.4	2.91	2.94	3.74	0.01
Fc1ccc(-c2ncn(C3CCNCC3)c2-c2ccnc(Oc3cccc(F)c3)n2)cc1	6.05	4.27	4.36	1.64	2.19	6.73	31.8	4.61	9.25	3.64	6.47	2.68	7.42	1.81	-0.11	2.74	1.69	2.65	5.6	-2.13
NC(=O)CCc1ccccc1Oc1nccc(-c2c(-c3ccc(F)cc3)ncn2C2CCNCC2)n1	2.87	0.33	0.07	-1.49	-1.51	-0.1	6.15	-0.12	0.11	0.21	-0.2	0.77	1.23	1.05	1.24	2.44	0.11	1.61	0.62	1.96
Fc1ccc(Oc2nccc(-c3c(-c4ccc(F)cc4)ncn3C3CCNCC3)n2)cc1	4.08	3.23	3.22	1.2	2.24	5.04	21.5	0.33	2.87	0.69	2.77	0.63	2.01	-0.91	-1.43	-0.09	-1.09	-0.76	0.82	-3.31
O=C1NC(=O)C(c2cccc([N+](=O)[O-])c2)=C1Nc1cc(Cl)c(O)c(Cl)c1	47.4	0.09	0.86	0.66	0.2	-1.53	-0.13	1.34	1.75	1.4	1.13	1.54	2.61	0.93	3.94	0.41	4.41	0.63	3.66	0.47
COc1ccccc1C1=C(Nc2ccccc2)C(=O)NC1=O	7.18	4.19	2.98	2.63	1.76	3.01	4.21	2.08	3.07	2.29	2.19	2.41	3.26	3.22	20.8	3.35	25.9	5.24	19.7	4.74
COc1ccccc1Oc1nccc(-c2c(-c3ccc(F)cc3)ncn2C2CCNCC2)n1	5.91	3.26	4.04	1.91	2.51	4.7	19.5	4.1	8.25	3.57	7.18	3.7	11.1	2	5.6	3.78	4.53	6.32	8.92	-1.17
CS(=O)(=O)c1ccc(Oc2nccc(-c3c(-c4ccc(F)cc4)ncn3C3CCNCC3)n2)cc1	0.82	4.91	4.43	2.7	1.85	3.95	10.1	3.96	5.6	3.58	4.83	2.91	4.08	0.13	-1.68	0.67	1.67	0.53	1.85	-1.77
O=C1NC(=O)C(c2ccccc2)=C1Nc1ccccc1	7.59	6.09	5.4	3.22	3.4	1.4	6.83	4.53	5.09	4.11	13.4	2.44	4.27	1.85	8.16	3.16	13.2	7.06	11.8	5.51
